{"source": "paper PMC9911399", "about": "“Two distinct binding modes provide the RNA-binding protein RbFox with extraordinary sequence specificity”", "binders": {"B1": {"name": "CCCAGUG (DNA:RNA)", "RNA": "GGGAGACCGGAAUUCAGAUUGUCCCCCAGUGUUAAAUCCCGUCGUAGCCACCA", "DNA 1": "CAATCTGAATTCCGGTCTCCC", "DNA 2": "TGGTGGCTACGACGGGATT"}, "B2": {"name": "CUGAGUC (DNA:RNA)", "RNA": "B1 RNA with C26U, C27G, G31C", "DNA 1": "CAATCTGAATTCCGGTCTCCC", "DNA 2": "TGGTGGCTACGACGGGATT"}, "B3": {"name": "CGCCGAC (DNA:RNA)", "RNA": "B1 RNA with C26G, A28C, U30A, G31C", "DNA 1": "CAATCTGAATTCCGGTCTCCC", "DNA 2": "TGGTGGCTACGACGGGATT"}, "B4": {"name": "AAGCGAC (DNA:RNA)", "RNA": "B1 RNA with C25A, C26A, C27G, A28C, U30A, G31C", "DNA 1": "CAATCTGAATTCCGGTCTCCC", "DNA 2": "TGGTGGCTACGACGGGATT"}, "B5": {"name": "UUUAGUC (DNA:RNA)", "RNA": "B1 RNA with C25U, C26U, C27U, G31C", "DNA 1": "CAATCTGAATTCCGGTCTCCC", "DNA 2": "TGGTGGCTACGACGGGATT"}, "B6": {"name": "CGAAGAG (DNA:RNA)", "RNA": "B1 RNA with C26G, C27A, U30A", "DNA 1": "CAATCTGAATTCCGGTCTCCC", "DNA 2": "TGGTGGCTACGACGGGATT"}, "B7": {"name": "CUGUGGU (DNA:RNA)", "RNA": "B1 RNA with C26U, C27G, A28U, U30G, G31U", "DNA 1": "CAATCTGAATTCCGGTCTCCC", "DNA 2": "TGGTGGCTACGACGGGATT"}, "B8": {"name": "CACGCCG (DNA:RNA)", "RNA": "B1 RNA with C26A, A28G, G29C, U30C", "DNA 1": "CAATCTGAATTCCGGTCTCCC", "DNA 2": "TGGTGGCTACGACGGGATT"}, "B9": {"name": "UCUGUCG (DNA:RNA)", "RNA": "B1 RNA with C25U, C27U, A28G, G29U, U30C", "DNA 1": "CAATCTGAATTCCGGTCTCCC", "DNA 2": "TGGTGGCTACGACGGGATT"}, "B10": {"name": "GCUGUAC (DNA:RNA)", "RNA": "B1 RNA with C25G, C27U, A28G, G29U, U30A, G31C", "DNA 1": "CAATCTGAATTCCGGTCTCCC", "DNA 2": "TGGTGGCTACGACGGGATT"}, "B11": {"name": "CCCCGCG (DNA:RNA)", "RNA": "B1 RNA with A28C, U30C", "DNA 1": "CAATCTGAATTCCGGTCTCCC", "DNA 2": "TGGTGGCTACGACGGGATT"}, "B12": {"name": "CUGCAUG (DNA:RNA)", "RNA": "B1 RNA with C26U, C27G, A28C, G29A", "DNA 1": "CAATCTGAATTCCGGTCTCCC", "DNA 2": "TGGTGGCTACGACGGGATT"}, "B13": {"name": "CCUAAAA (DNA:RNA)", "RNA": "B1 RNA with C27U, G29A, U30A, G31A", "DNA 1": "CAATCTGAATTCCGGTCTCCC", "DNA 2": "TGGTGGCTACGACGGGATT"}, "B14": {"name": "GCGGCCC (DNA:RNA)", "RNA": "B1 RNA with C25G, C27G, A28G, G29C, U30C, G31C", "DNA 1": "CAATCTGAATTCCGGTCTCCC", "DNA 2": "TGGTGGCTACGACGGGATT"}, "B15": {"name": "AUACGGU (DNA:RNA)", "RNA": "B1 RNA with C25A, C26U, C27A, A28C, U30G, G31U", "DNA 1": "CAATCTGAATTCCGGTCTCCC", "DNA 2": "TGGTGGCTACGACGGGATT"}, "B16": {"name": "GCAAAAC (DNA:RNA)", "RNA": "B1 RNA with C25G, C27A, G29A, U30A, G31C", "DNA 1": "CAATCTGAATTCCGGTCTCCC", "DNA 2": "TGGTGGCTACGACGGGATT"}, "B17": {"name": "GAUACCU (DNA:RNA)", "RNA": "B1 RNA with C25G, C26A, C27U, G29C, U30C, G31U", "DNA 1": "CAATCTGAATTCCGGTCTCCC", "DNA 2": "TGGTGGCTACGACGGGATT"}, "B18": {"name": "UAGCAUU (DNA:RNA)", "RNA": "B1 RNA with C25U, C26A, C27G, A28C, G29A, G31U", "DNA 1": "CAATCTGAATTCCGGTCTCCC", "DNA 2": "TGGTGGCTACGACGGGATT"}, "B19": {"name": "AAGUGAA (DNA:RNA)", "RNA": "B1 RNA with C25A, C26A, C27G, A28U, U30A, G31A", "DNA 1": "CAATCTGAATTCCGGTCTCCC", "DNA 2": "TGGTGGCTACGACGGGATT"}, "B20": {"name": "GAGAGCC (DNA:RNA)", "RNA": "B1 RNA with C25G, C26A, C27G, U30C, G31C", "DNA 1": "CAATCTGAATTCCGGTCTCCC", "DNA 2": "TGGTGGCTACGACGGGATT"}, "B21": {"name": "UGCUCCG (DNA:RNA)", "RNA": "B1 RNA with C25U, C26G, A28U, G29C, U30C", "DNA 1": "CAATCTGAATTCCGGTCTCCC", "DNA 2": "TGGTGGCTACGACGGGATT"}, "B22": {"name": "CUGCUAG (DNA:RNA)", "RNA": "B1 RNA with C26U, C27G, A28C, G29U, U30A", "DNA 1": "CAATCTGAATTCCGGTCTCCC", "DNA 2": "TGGTGGCTACGACGGGATT"}, "B23": {"name": "GCGCCAU (DNA:RNA)", "RNA": "B1 RNA with C25G, C27G, A28C, G29C, U30A, G31U", "DNA 1": "CAATCTGAATTCCGGTCTCCC", "DNA 2": "TGGTGGCTACGACGGGATT"}, "B24": {"name": "UCUCAAU (DNA:RNA)", "RNA": "B1 RNA with C25U, C27U, A28C, G29A, U30A, G31U", "DNA 1": "CAATCTGAATTCCGGTCTCCC", "DNA 2": "TGGTGGCTACGACGGGATT"}, "B25": {"name": "CCAGGCA (DNA:RNA)", "RNA": "B1 RNA with C27A, A28G, U30C, G31A", "DNA 1": "CAATCTGAATTCCGGTCTCCC", "DNA 2": "TGGTGGCTACGACGGGATT"}, "B26": {"name": "UACAAGC (DNA:RNA)", "RNA": "B1 RNA with C25U, C26A, G29A, U30G, G31C", "DNA 1": "CAATCTGAATTCCGGTCTCCC", "DNA 2": "TGGTGGCTACGACGGGATT"}, "B27": {"name": "GCGGGUC (DNA:RNA)", "RNA": "B1 RNA with C25G, C27G, A28G, G31C", "DNA 1": "CAATCTGAATTCCGGTCTCCC", "DNA 2": "TGGTGGCTACGACGGGATT"}, "B28": {"name": "AUUACAA (DNA:RNA)", "RNA": "B1 RNA with C25A, C26U, C27U, G29C, U30A, G31A", "DNA 1": "CAATCTGAATTCCGGTCTCCC", "DNA 2": "TGGTGGCTACGACGGGATT"}, "B29": {"name": "GCCAUAG (DNA:RNA)", "RNA": "B1 RNA with C25G, G29U, U30A", "DNA 1": "CAATCTGAATTCCGGTCTCCC", "DNA 2": "TGGTGGCTACGACGGGATT"}, "B30": {"name": "AUGGCAA (DNA:RNA)", "RNA": "GGGAGACCGGAAUUCAGAUUGUCCAUGGCAAUUAAAUCCCGUCGUAGCCACCA", "DNA 1": "CAATCTGAATTCCGGTCTCCC", "DNA 2": "TGGTGGCTACGACGGGATT"}, "B31": {"name": "AGGUGGU (DNA:RNA)", "RNA": "B30 RNA with U26G, G28U, C29G, A30G, A31U", "DNA 1": "CAATCTGAATTCCGGTCTCCC", "DNA 2": "TGGTGGCTACGACGGGATT"}}, "note": "Positions count from the first letter of the chain named. This is one part of the list."}
{"target": "T1, RBFOX1 RRM RbFoxmut (Fox-RRM*) (Homo sapiens, UniProt Q9NWB1 109-208, R118D;E147R;N151S;E152T)", "T1 sequence": "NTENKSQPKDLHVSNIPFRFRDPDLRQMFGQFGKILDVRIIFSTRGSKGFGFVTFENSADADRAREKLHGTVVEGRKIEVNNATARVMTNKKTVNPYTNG", "assay": "EMSA; HiTS-Eq, 1 nM pool, 10 min; buffer printed only for the single-RNA assays: 10 mM Tris pH 7.5, 150 mM NaCl, 3.4 mM EDTA, 0.001% NP-40, 30 C", "conditions": "tags: His6 N-terminal (pET28a); label: 5' 32P", "how_it_was_run": "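Purified RbFox RRM (wild type or mutant) was equilibrated for 10 min in 50 µL with 1 nM of a 5′-radiolabelled pool of RNA with 7 randomized nucleotides, its flanks annealed to DNA oligonucleotides, across increasing protein concentrations. Free RNA was separated by 8% native PAGE, excised, reverse-transcribed, PCR-barcoded and sequenced on an Illumina HiSeq 2500. Relative association constants came from read-count changes of each variant against the control reaction, normalised to the cognate motif.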"}
{"binder": "B1", "binding signal": "0.142 KA relative to UGCAUGU"}
{"binder": "B2", "binding signal": "0.153 KA relative to UGCAUGU"}
{"binder": "B3", "binding signal": "0.0818 KA relative to UGCAUGU"}
{"binder": "B4", "binding signal": "0.0788 KA relative to UGCAUGU"}
{"binder": "B5", "binding signal": "0.0953 KA relative to UGCAUGU"}
{"binder": "B6", "binding signal": "0.124 KA relative to UGCAUGU"}
{"binder": "B7", "binding signal": "0.154 KA relative to UGCAUGU"}
{"binder": "B8", "binding signal": "0.117 KA relative to UGCAUGU"}
{"binder": "B9", "binding signal": "0.137 KA relative to UGCAUGU"}
{"binder": "B10", "binding signal": "0.102 KA relative to UGCAUGU"}
{"binder": "B11", "binding signal": "0.125 KA relative to UGCAUGU"}
{"binder": "B12", "binding signal": "1.34 KA relative to UGCAUGU"}
{"binder": "B13", "binding signal": "0.0857 KA relative to UGCAUGU"}
{"binder": "B14", "binding signal": "0.0784 KA relative to UGCAUGU"}
{"binder": "B15", "binding signal": "0.0993 KA relative to UGCAUGU"}
{"binder": "B16", "binding signal": "0.0578 KA relative to UGCAUGU"}
{"binder": "B17", "binding signal": "0.0732 KA relative to UGCAUGU"}
{"binder": "B18", "binding signal": "0.0725 KA relative to UGCAUGU"}
{"binder": "B19", "binding signal": "0.11 KA relative to UGCAUGU"}
{"binder": "B20", "binding signal": "0.11 KA relative to UGCAUGU"}
{"binder": "B21", "binding signal": "0.0695 KA relative to UGCAUGU"}
{"binder": "B22", "binding signal": "0.139 KA relative to UGCAUGU"}
{"binder": "B23", "binding signal": "0.0811 KA relative to UGCAUGU"}
{"binder": "B24", "binding signal": "0.0562 KA relative to UGCAUGU"}
{"binder": "B25", "binding signal": "0.152 KA relative to UGCAUGU"}
{"binder": "B26", "binding signal": "0.0384 KA relative to UGCAUGU"}
{"binder": "B27", "binding signal": "0.191 KA relative to UGCAUGU"}
{"binder": "B28", "binding signal": "0.056 KA relative to UGCAUGU"}
{"binder": "B29", "binding signal": "0.107 KA relative to UGCAUGU"}
{"binder": "B30", "binding signal": "0.0904 KA relative to UGCAUGU"}
{"binder": "B31", "binding signal": "0.146 KA relative to UGCAUGU"}
